Experimental findings from article PMC12136788 are described below.

T1: UNK ZnF1-3 (human, UniProt Q9C0B0 31-174)
T1 sequence: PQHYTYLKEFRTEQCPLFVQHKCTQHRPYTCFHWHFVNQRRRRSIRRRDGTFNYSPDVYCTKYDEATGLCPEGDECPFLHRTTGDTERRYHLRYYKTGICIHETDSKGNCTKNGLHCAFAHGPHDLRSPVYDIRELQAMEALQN

B1: chr15:23003119:23003120:+_ENSG00000068793_ENST00000560848|hu_hu|motif|central (ssRNA)
RNA: GGGAGUUCUACAGUCCGACGAUCUUUUUAGAUCGAAAAGCACCCCCUUUAACAGGUACAGAGAUACUGAAAAAUAGUCCCGGAAAAUCUCACUAAAUAGUUUACGGAGAGAAAGGCAUGCCAUGUUGAGUUACGGAGUGCAGCCAACAGAGGAUUGAGCAUCA
B2: chr1:58468927:58468928:-_ENSMUSG00000026034_ENSMUST00000148330|mus_mus|mus_mus_mus_hu_False|88_98 (ssRNA)
RNA: GGGAGUUCUACAGUCCGACGAUCAAUUACUGAAAAAUGAAAGAUGUUAUUUGGUUUUGUACUUAAUGAACCAAAUUACCCAAACAAAAUAAACAUGGCAAUAUAAAAAUGUUAAGAAUUUACAAAGCUGUACAAAAUAACUUACAACAGAGGAUUGAGCAUCA
B3: chr1:95367794:95367795:-_ENSG00000117519_ENST00000538964|hu_hu|FALSE|FALSE (ssRNA)
RNA: GGGAGUUCUACAGUCCGACGAUCAUUUGCUUCGAAUAUGUCAUGUGGCUUCAUACCAUAAGCCUGAAUAGCUUUAAUAAAGUUGCCAAUAUUCUCCAACUGAGGCCAGUUCAGUGAGGACUCGUUGACCUUCUUCACUGAGCCCAACAGAGGAUUGAGCAUCA
B4: 31020732_31021150_1074_CDS_ENSG00000171456_ENST00000306058|human|control|control (ssRNA)
RNA: GGGAGUUCUACAGUCCGACGAUCUUUGAUUUCAGCCUCCUCCUGGCCCACGUUCUGCUGCAAUGACUCUUCUUUGGUCAAACCCAGCUUCUGUCCAUAGUAGUCUUCAAAGAACUUUUCUUUCCAUUGUUCCACCUUCUUUUCCAACAGAGGAUUGAGCAUCA
B5: chr10:73857132:73857133:-_ENSG00000138303_ENST00000317168|hu_hu|FALSE|FALSE (ssRNA)
RNA: GGGAGUUCUACAGUCCGACGAUCUUUCCAAGAUCCACCUCAGGAGAAGUCAAUUUGUCCACAGGAAGCGUAGUUUCCAAAGCUGUCUACGGUGAACCUCUGAGAGAUGUGAAUUGAAUUCAGCUUUAGGGAGCCAAAGUAGAACAACAGAGGAUUGAGCAUCA
B6: 10426189_10434434_903_3pUTR_ENSMUSG00000027534_ENSMUST00000029047|mouse|control|control (ssRNA)
RNA: GGGAGUUCUACAGUCCGACGAUCACCUGGUGGAUCAUCCAGACAAAGAAAUUCUCUCACUGCAAGGCAGUUAGCAAUGUCCUUGUGAGCUACUAGGUUCUGAAGAAAUGCUUGUAGUCCUAAUUGUCUAUCUUCUAGAAAUUCCAACAGAGGAUUGAGCAUCA
B7: chr7:91631701:91631702:+_ENSG00000127914_ENST00000356239|hu_mus|motif|central (ssRNA)
RNA: GGGAGUUCUACAGUCCGACGAUCUUCAUUUAGAUAAAGGCAUUGUUGUUGAAGGUCCUCGGUCUCCUUCCUCAGCAUCGCGGCUUCUUUUUGCCACCUCGAGUCUGCCGACUUGCUUGUGCUGGGAUCUACGGCAAUGGAUCUCAACAGAGGAUUGAGCAUCA
B8: 40523664_40526014_3401_CDS_ENSG00000180182_ENST00000324817|human|control|control (ssRNA)
RNA: GGGAGUUCUACAGUCCGACGAUCUUGAGGAGAUCCUGGCCAGUUCCCUGCUCGUCCACUUGGUGACACCAUAGUGUAUGGGGAACUAGGGUCAAGAGUUCCAUGUGGACUAGCAAAACUGGCCCCUGGUCCUAUUGAGAUUCCCAACAGAGGAUUGAGCAUCA
B9: chr10:33214929:33214930:-_ENSG00000150093_ENST00000302278|hu_hu|hu_hu_hu_mus_True|18_38 (ssRNA)
RNA: GGGAGUUCUACAGUCCGACGAUCAACAAGUUCAUUGAAAAACUCUCCUCUGUCAGUAAGACUAAGCACAUUUUUGUAGCUAAAUGGGCUGGUGCAGUUCUGUUCACUUGUACAAGGGUUCCUGAGCUUUGCUGGGGUUGUGCUCAACAGAGGAUUGAGCAUCA
B10: chrX:98862621:98862622:+_ENSMUSG00000034160_ENSMUST00000044475|mus_hu|mus_mus_mus_hu_False|8_18 (ssRNA)
RNA: GGGAGUUCUACAGUCCGACGAUCCUGCAUCUCCUUUAGAGUGUUUCCCAUAUUAGAGUAGGCAUCAGCAAAGGUAGGACUGAUUCGAAUAGCCUCCUUAUAAUGCAUCAGAGCUUCCUGCAGCUUGCCCUGCUGUUGCAGUACCAACAGAGGAUUGAGCAUCA
B11: chrX:98862621:98862622:+_ENSMUSG00000034160_ENSMUST00000044475|mus_hu|mus_mus_mus_hu_False|18_18 (ssRNA)
RNA: B10 RNA with U135C
B12: chr17:62500844:62500845:-_ENSG00000108654_ENST00000583239|hu_hu|motif|central (ssRNA)
RNA: GGGAGUUCUACAGUCCGACGAUCCUUGAUAAAAAUUCUUCUCAAAUUUAGGCAGCUCAUCAAGAUUCCACUUCUUUUUAACGGAUUUCUCCCCAGGGUUUCCAAACUUCUUUCCAGAUAAGGGCCCUGCCCUACUUCCUCCAACAACAGAGGAUUGAGCAUCA
B13: chr3:100058692:100058693:+_ENSG00000114021_ENST00000480073|hu_hu|motif|central (ssRNA)
RNA: GGGAGUUCUACAGUCCGACGAUCAUAUUCAGGAAAAUAUUUCGCUCCAUAUGGAGAAUUAAAGCAUUCCGGCAAAGAAACGGUUUUGGCUCCUUGCGUUGCUGCCUCCCGGAUGAAGCUACAAGCGCGAGUGACGUUAUCUGACAACAGAGGAUUGAGCAUCA
B14: chr7:36427155:36427156:-_ENSMUSG00000030417_ENSMUST00000118501|mus_hu|FALSE|FALSE (ssRNA)
RNA: GGGAGUUCUACAGUCCGACGAUCACAAAGUAAAUAAUCAGAUCUUAACUUCUGUCCUAGACUUGUUCCGUUAAGUUCUAGUCUGUGAGCACUUGUAGUUCAAUAAUCGUCAUCUUCAUCAGAGUCCAUUACUUUUCUUCUGUUCAACAGAGGAUUGAGCAUCA

Substitutions are numbered along the chain they refer to. This is one part of the list.

This test addresses T1, UNK ZnF1-3. Briefly: nsRBNS (natural sequence RNA bind-n-seq); RBNS binding buffer (assumed for nsRBNS): 25 mM Tris pH 7.5, 150 mM KCl, 3 mM MgCl2, 0.01% Triton X-100, 500 ug/ml BSA, 20 U/ml SUPERase-In, 4 C; UNK is unkempt and MSI1 is Musashi-1; names of the RNAs are library labels; protein concentration not given here; high values mean tight binding.
The molecule B1 gave a binding signal of 1.71 enrichment R.
On to B2, for which the binding signal came to 1.39 enrichment R.
Molecule B3 displayed a binding signal of 0.282 enrichment R.
As for B4, the figure is 0.426 enrichment R; as for B5, 1.17 enrichment R; as for B6, 0.402 enrichment R.
For B7, the binding signal was found to be 0.487 enrichment R.
With B8, the binding signal was determined as 0.346 enrichment R.
In turn, B9 gave a binding signal of 0.962 enrichment R.
Molecule B10 had a binding signal of 1.3 enrichment R.
B11 gave a binding signal of 0.989 enrichment R.
Turning to B12, the binding signal came out at 1.18 enrichment R.
In turn, B13 had a binding signal of 0.534 enrichment R.
B14 returned a binding signal of 0.744 enrichment R.
